37 compounds from the supplement of paper PMC9446081 can be followed below.

Screen size: about 39,000 compounds; about 220 (0.56%) showed activity. The list shows a part of the results.
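Note: static incubation at 37 °C against the wild-type strain, values averaged over two biological replicates.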

The assay has as its system Escherichia coli K-12 BW25113. Briefly: relative growth (OD600 normalised to plate interquartile mean) (fraction); higher = less growth inhibition, active = 0.2 or less. To be noted: 50 µM; LB; incubation time: overnight (16-24 h).
For `CC(C)NC(=O)N(C)C[C@H]1Oc2c(NC(=O)C3CCOCC3)cccc2C(=O)N([C@H](C)CO)C[C@@H]1C`, the relative growth is inactive: 0.965.

With `C[C@H]1CN([C@@H](C)CO)C(=O)c2cc(NC(=O)C3CCCCC3)ccc2O[C@H]1CN(C)Cc1ccc(-c2ccccc2)cc1`, the relative growth was inactive: 1.04.

Take `Cn1cnc(S(=O)(=O)N2C[C@H](O)COC[C@H]3O[C@H](CC(=O)N4CCN(c5ccccc5)CC4)CC[C@@H]32)c1`: the relative growth was inactive: 0.986.

Consider `CNCc1cnc(NC)nc1`, for which the relative growth was inactive: 1.02.

Consider `C[C@@H]1CCCCO[C@H](CN(C)C(=O)Nc2cccc3ccccc23)[C@H](C)CN([C@@H](C)CO)C(=O)c2cc(NS(=O)(=O)c3ccc(F)cc3)ccc2O1`, for which the relative growth is inactive: 0.95.

On to `CN1CCN(C(=O)C[C@H]2CC[C@H](NC(=O)c3ccc4c(c3)OCO4)[C@H](CO)O2)CC1`, for which the relative growth is inactive: 1.

For `C[C@H]1CN([C@@H](C)CO)C(=O)c2cccc(NC(=O)c3nc4ccccc4s3)c2O[C@H]1CN(C)S(C)(=O)=O`, the relative growth is inactive: 1.02.

For the compound `Cc1ccc(S(=O)(=O)N(C)C[C@H]2OCCCC[C@@H](C)Oc3ccc(NC(=O)Nc4ccccc4)cc3C(=O)N([C@H](C)CO)C[C@@H]2C)cc1`, the relative growth is inactive: 1.03.

`C[C@@H]1CCCCO[C@@H](CN(C)Cc2ccc(C(=O)Nc3ccccc3N)cc2)[C@@H](C)CN([C@H](C)CO)C(=O)c2cc(NC(=O)CCC(F)(F)F)ccc2O1`: the relative growth is inactive: 0.999.

On to `O=C(C[C@@H]1CC[C@H]2[C@@H](COC[C@H](O)CN2C(=O)c2cnccn2)O1)N1CCN(c2ccccc2)CC1`, for which the relative growth is inactive: 0.98.

For `C[C@H](CO)N1C[C@H](C)[C@@H](CN(C)CC2CC2)Oc2ccc(NS(=O)(=O)c3cn(C)cn3)cc2CC1=O`, the relative growth is inactive: 0.972.

Regarding `COc1ccc(NC(=O)Nc2ccc3c(c2)[C@H]2C[C@@H](CC(=O)N4CCN(C)CC4)O[C@H](CO)[C@H]2O3)cc1`, the relative growth is inactive: 1.

On to `CN(C)C(=O)C[C@@H]1CC[C@H]2[C@H](COc3ccc(NS(=O)(=O)c4cccc(F)c4)cc3C(=O)N2C)O1`, for which the relative growth is inactive: 0.987.

Consider `CC(=O)N[C@@H]1CC[C@H](CCNC(=O)C2CC2)O[C@@H]1CO`, for which the relative growth is inactive: 0.964.

In the case of `C[C@@H]1CCCCO[C@H](CN(C)C(=O)Nc2cccc3ccccc23)[C@@H](C)CN([C@@H](C)CO)C(=O)c2cc(NC(=O)C3CCCCC3)ccc2O1`, the relative growth was inactive: 1.01.

Turning to `C[C@H](CO)N1C[C@H](C)[C@@H](CN(C)Cc2ccc(Oc3ccccc3)cc2)Oc2ccc(NC(=O)Nc3ccc(C(F)(F)F)cc3)cc2C1=O`, the relative growth is inactive: 0.987.

In the case of `NCCn1cccc1`, the relative growth is inactive: 1.02.

As for `Cc1noc(C)c1S(=O)(=O)Nc1ccc2c(c1)CC(=O)N([C@@H](C)CO)C[C@H](C)[C@H](CN(C)Cc1ccccc1)O2`, the relative growth is inactive: 0.967.

As for `C[C@@H]1O[C@@H](O[C@H]2[C@H](O)[C@@H](O)[C@H](OC(=O)[C@]34CCC(C)(C)C[C@H]3C3=CC[C@H]5[C@@]6(C)CC[C@H](O[C@@H]7O[C@H](C(=O)O)[C@@H](O)[C@H](O)[C@H]7O)C(C)(C)[C@@H]6CC[C@@]5(C)[C@]3(C)CC4)O[C@@H]2CO)[C@H](O)[C@H](O)[C@H]1O`, the relative growth was inactive: 1.

Consider `COc1ccc(CNC(=O)C[C@@H]2C[C@H]3c4cc(NS(=O)(=O)c5ccc(F)cc5)ccc4O[C@H]3[C@H](CO)O2)cc1`, for which the relative growth is inactive: 1.01.

Regarding `COc1ccc(CCc2nc3cc(-c4c(C)noc4C)ccc3n2C[C@H](C)N2CCOCC2)cc1Cl`, the relative growth is inactive: 1.01.

`Cc1noc(C)c1NC(=O)N(C)C[C@H]1Oc2ccc(NC(=O)c3ccncc3)cc2C(=O)N([C@H](C)CO)C[C@H]1C`: the relative growth is inactive: 0.983.

With `Cc1ccc(S(=O)(=O)Nc2ccc3c(c2)C(=O)N([C@@H](C)CO)C[C@H](C)[C@H](CN(C)C(=O)NC(C)C)O3)cc1`, the relative growth is inactive: 1.

On to `Nc1ccn([C@@H]2O[C@H](CO)[C@H](O)[C@@H]2O)c(=O)n1`, for which the relative growth was inactive: 1.01.

On to `Cc1ccc(S(=O)(=O)N(C)C[C@@H]2Oc3ccc(NS(C)(=O)=O)cc3C(=O)N([C@@H](C)CO)C[C@@H]2C)cc1`, for which the relative growth is inactive: 1.01.

For `CC(C)N1C(=O)c2cccc(NC(=O)c3ccncc3)c2O[C@H](CN(C)Cc2ccc(Cl)cc2)[C@H]1C`, the relative growth is inactive: 1.02.

For the compound `C[C@@H]1CN([C@@H](C)CO)C(=O)Cc2cc(NS(=O)(=O)c3ccccc3)ccc2O[C@@H]1CN(C)S(=O)(=O)c1ccc(F)cc1`, the relative growth was inactive: 0.878.

For `C[C@@H]1CN([C@H](C)CO)C(=O)c2cccc(NC(=O)C3CCOCC3)c2O[C@H]1CN(C)S(=O)(=O)c1cccs1`, the relative growth was inactive: 0.995.

`C[C@@H]1CCCCO[C@@H](CN(C)C(=O)C2CCCCC2)[C@H](C)CN([C@H](C)CO)C(=O)c2cc(NS(=O)(=O)c3ccccc3)ccc2O1`: the relative growth was inactive: 0.989.

Consider `C[C@@H]1CCCCO[C@@H](CN(C)Cc2ccc(C(=O)O)cc2)[C@@H](C)CN([C@H](C)CO)C(=O)c2cc(NC(=O)CCC(F)(F)F)ccc2O1`, for which the relative growth is inactive: 1.

Turning to `C[C@@H](O)C#Cc1ccc2c(c1)O[C@@H](CN(C)C)[C@@H](C)CN([C@@H](C)CO)S2(=O)=O`, the relative growth is inactive: 0.99.

On to `C[C@@H]1CN([C@H](C)CO)C(=O)Cc2cc(NC(=O)CCC(F)(F)F)ccc2O[C@@H]1CN(C)Cc1ccc(C(=O)Nc2ccccc2N)cc1`, for which the relative growth was inactive: 1.01.

Take `C[C@@H]1CN([C@@H](C)CO)C(=O)CCCn2cc(nn2)CO[C@@H]1CN(C)Cc1ccc2c(c1)OCCN2C`: the relative growth was inactive: 0.995.

Take `CO[C@H]1CN(C)C(=O)c2cc(NC(=O)Nc3ccccc3F)ccc2OC[C@H](C)N(Cc2ccccc2C(=O)O)C[C@@H]1C`: the relative growth is inactive: 0.934.

As to `O=C([O-])c1ccccc1-c1c2cc(I)c(=O)c(I)c-2oc2c(I)c([O-])c(I)cc12.[Na+].[Na+]`, the relative growth was inactive: 0.861.

With `O=C(NCCN1CCCC1)[C@H]1[C@H](CO)[C@H]2Cn3c(cccc3=O)[C@H]2N1C(=O)c1ccccc1`, the relative growth is inactive: 0.995.

With `C[C@@H]1CN([C@H](C)CO)C(=O)Cc2cc(NS(=O)(=O)c3cn(C)cn3)ccc2O[C@@H]1CN(C)S(=O)(=O)c1ccccc1`, the relative growth is inactive: 0.993.
